Values joined by “and” are separate entries in the source; they are usually repeats but may differ in a detail not shown here. Equal values may be shown once. About 50,000 (12%) of roughly 420,000 compounds were called active. This list was built around the results that the source calls inconclusive (neither active nor inactive); the mix of calls is not that of the screen. Calls follow the shape of the dose curve; as a rule, active = well fitted inhibition curve with a large enough effect; inconclusive = small, poorly fitted or top-dose-only effect; inactive = flat fitted curve, though single readings scatter. Where the call is inconclusive, the potency comes from a doubtful curve fit.
Experiment: qHTS for Inhibitors of human tyrosyl-DNA phosphodiesterase 1 (TDP1): qHTS in cells in presence of CPT; also: nearly all actives have a fitted effect of over 55% in size
Conditions: chicken DT40 Tdp1-/-;hTDP1 cells + 20 nM CPT, ATP luminescence, 48 h; activity change, negative = growth inhibition: at 46.2 µM (top of the series)
Outline: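 Cell growth measured by CellTiter-Glo luminescence after a minimum 48 h, 37 C compound exposure with 20 nM CPT in Tdp1-knockout DT40 cells stably expressing hTDP1, seeded 400/well; qHTS titration format.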
% is scaled to controls: 0 for no effect and ±100 for the full control effect; potency is read from the fitted curve at half-maximal effect; tags tell the direction and shape of the fitted curve.

SMILES	Potency	activity change, negative = growth inhibition
COc1cc(/C=C/C(O)=C/C(=O)/C=C/c2ccc(O)cc2)ccc1O	active: 18.4 µM	–
CN(C)c1ccc(C(=O)N2CCCC(CCC(=O)N3CCN(c4ccccn4)CC3)C2)cc1 (stereo not given)	inconclusive: 23.1 µM [inhibitor, partial curve]	–
CN(c1ccccc1)S(=O)(=O)c1ccc(C(=O)Nc2ccncc2)cc1	inconclusive: 18.4 µM [inhibitor, single point]	–
CC1=C(C#N)C(NC(=O)c2cccc(Cl)c2)(C(F)(F)F)C(=O)N1 (stereo not given)	–	inactive: -1.41%
COC(=O)C1=C(C)NC(=O)CC1c1ccccc1 (stereo not given)	–	inactive: -15.6%
O=C(COc1ccc(-n2cnnn2)cc1)Nc1ccc(Br)cc1F	inconclusive: 16.4 µM [inhibitor, single point]	–
CN(C)S(=O)(=O)c1ccc2nc(NC(=O)c3cccnc3)sc2c1	–	inactive: -21.5%
COc1ccc(NC(=O)CN(C)C(=O)c2cccc(S(=O)(=O)N3CC4(C)CC3CC(C)(C)C4)c2)cc1 (stereo not given)	inconclusive: 29.1 µM [inhibitor, single point]	–
O=c1[nH]cccc1-c1nc2ccccc2n1Cc1cccc(Cl)c1	inconclusive: 16.4 µM [inhibitor, partial curve, poor fit]	–
CC1CCCCC12NC(=O)N(CC(=O)NCCc1c[nH]c3ccccc13)C2=O (stereo not given)	–	inactive: -11.3%
O=C(Nc1ccc(F)cc1)C(Cc1ccccc1)n1cccc1 (stereo not given)	inconclusive: 20.6 µM [inhibitor, single point]	–
COc1cc2c(cc1OC)/C(=C/c1ccc(N(C)C)cc1)C=C2	inconclusive: 35.5 µM [inhibitor, single point]	–
C#Cc1ccc(C(=O)Nc2cc(C(N)=O)ccc2N2CCOCC2)cc1	inconclusive: 0.0164 µM [inhibitor, full curve, poor fit]	–
COc1ccccc1-c1noc(-c2ccc(N3CCN(c4ccccc4)CC3)c([N+](=O)[O-])c2)n1	active: 23.1 µM	–
Cc1ccc(-c2nc3ccccc3n2C)o1	inconclusive: 23.1 µM [inhibitor, single point]	–
CN(C)CC/C=C1\c2ccccc2Sc2cc(F)c(Cl)cc21	active: 16.4 µM	–
O=C(COC(=O)c1cc(Cl)nc(Cl)c1)NC1CCCCCC1	–	inactive: -1.33%
Cc1cccc(C(=O)N2CCc3cc(CNC(=O)CCc4ccccc4)ccc32)c1	active: 14.6 µM	–
COc1cc(C(O)c2nc(-c3cccc(C(F)(F)F)c3)cs2)ccc1F (stereo not given)	active: 16.4 µM	–
COc1ccc(N(C(=O)Cc2cccs2)C(C(=O)NC2CCCC2)c2ccncc2)cc1 (stereo not given)	inconclusive: 14.6 µM [inhibitor, partial curve, poor fit]	–
Cc1ccc(Cl)cc1NC(=O)N1CCN(C)c2ncccc21	–	inactive: -10.5%
O=C(NCc1cccs1)C1CCN(S(=O)(=O)c2ccc3c(c2)OCCO3)CC1	inconclusive: 16.4 µM [inhibitor, single point]	–
CCOC(=O)N1CCC(N2CCN(S(=O)(=O)c3ccc(C)cc3)CC2)CC1	inconclusive: 25.9 µM [inhibitor, partial curve]	–

SMILES	Potency	activity change, negative = growth inhibition
CC1CCN(S(=O)(=O)c2ccc(NC(=O)C3CC(=O)N(c4ccccc4)C3)cc2)CC1 (stereo not given)	inconclusive: 23.1 µM [inhibitor, single point]	–
CCOC(=O)[C@@H](C)N(C(=O)OC(C)(C)C)S(=O)(=O)N(Cc1ccccc1)[C@H](C(=O)OC)C(C)C	active: 23.1 µM	–
CCCCn1c(=O)[nH]c(=O)c2c1nc(-c1ccccc1F)n2Cc1ccccc1	inconclusive: 20.6 µM [inhibitor, single point]	–
Cc1ccc(S(=O)(=O)c2cn(C)c3cc(N4CCN(C)CC4)c(F)cc3c2=O)cc1	inconclusive: 29.1 µM [inhibitor, single point] and inconclusive: 23.1 µM [inhibitor, single point]	–
CC(C)c1ccc(/C=N/n2c(COc3ccccc3)n[nH]c2=S)cc1	inconclusive: 29.1 µM [inhibitor, single point]	–
Cc1cc(OC(C)C(=O)N(Cc2ccco2)C2CCS(=O)(=O)C2)cc(C)c1Cl (stereo not given)	inconclusive: 18.4 µM [inhibitor, single point]	–
O=C(NCCc1c[nH]c2ccccc12)OC1CC2CC1[C@H]1CCCCN1C2=O (stereo not given in full)	–	inactive: -22.7%
CCN1CCN(c2ncc(C(=O)Nc3c(F)cc(F)cc3Br)c3ccccc23)CC1	active: 14.1 µM	–
Cc1ccc(/C=C2\SC(=S)N(CCC(=O)N3CCCCC3)C2=O)cc1	inconclusive: 29.1 µM [inhibitor, single point]	–
CCc1cc2c(cc3c(=O)n(CC(=O)N4CCN(c5cc(Cl)ccc5C)CC4)ncn32)s1	–	inactive: -19.2%
CC1CC(C)CN(CCCSc2ccccc2)C1 (stereo not given)	–	inactive: -14.2%
COc1cc2c3c(c1)/C(=C1/SC(=S)NC1=O)C(=O)N3C(C)(C)C=C2C	inconclusive: 18.4 µM [inhibitor, single point]	–
CCCCn1c(/C=N/Nc2nc3ccccc3[nH]2)nc2ccccc21	active: 4.61 µM	–
Cc1ccc(C2C=C(c3ccc4c(c3)OCO4)Nc3ncnn32)cc1 (stereo not given)	–	inactive: -29.1%
CN(CC(=O)Nc1ccccc1C(F)(F)F)C(=O)c1ccc2c(=O)n3c(nc2c1)CCC3	–	inactive: -13.9%
COc1ccccc1C(=O)Nc1cc2c(cc1N1CCCCC1)n(C)c(=O)n2C	active: 5.8 µM	–
COc1cc(/C=C(\C#N)C(=O)Nc2ccc3c(c2)OCCO3)ccc1O	inconclusive: 23.1 µM [inhibitor, single point]	–
CCn1c(=O)c(C(=O)CN2CCc3ccccc32)c(N)n(Cc2ccccc2)c1=O	inconclusive: 20.6 µM [inhibitor, single point]	–
CC1CC(C)CN(c2ccc(S(=O)(=O)N3CCOCC3)cc2)C1 (stereo not given)	inconclusive: 29.1 µM [inhibitor, single point]	–
Cc1cccc(C)c1-n1ncc(C(=O)Nc2ccc3c(c2)OCCO3)c1C1CCN(C(=O)OC(C)(C)C)CC1	inconclusive: 25.9 µM [inhibitor, single point]	–
CC1Cc2ccccc2N1CC(=O)NC(=O)NC1CCCCC1 (stereo not given)	active: 18.4 µM	–
COc1ccc(CNS(=O)(=O)c2ccc3c(c2)NC(=O)C(C)S3)cc1 (stereo not given)	inconclusive: 29.1 µM [inhibitor, single point]	–

From PubChem BioAssay AID686979 (National Center for Advancing Translational Sciences (NCATS), 2013)
